Measurements: a collection of fitness landscapes (doi:10.1126/science.1257360)
The other results are listed elsewhere or left out.

B1: PhoQ; a variant is named by its letters at X, in order, P23837 (parent)
chain: MKKLLRLFFPLSLRVRFLLATAAVVLVLSLAYGMVALIGYSVSFDKTTFRLLRGESNLFYTLAKWENNKLHVELPENIDKQSPTMTLIYDENGQLLWAQRDVPWLMKMIQPDWLKSNGFHEIEADVNDTSLLLSGDHSIQQQLQEVREDDDDAEMTHSVAVNVYPATSRMPKLTIVVVDTIPVELKSSYMVWSWFIYVLSANLLLVIPLLWVAAWWSLRPIEALAKEVRELEEHNRELLNPATTRELTSLVRNLNRLLKSERERYDKYRTTLTDLTHSLKTPLXXLQXXLRSLRSEKMSVSDAEPVMLEQISRISQQIGYYLHRASMRGGTLLSRELHPVAPLLDNLTSALNKVYQRKGVNISLDISPEISFVGEQNDFVEVMGNVLDNACKYCLEFVEISARQTDEHLYIVVEDDGPGIPLSKREVIFDRGQRVDTLRPGQGVGLAVAREITEQYEGKIVAGESMLGGARMEVIFGRQHSAPKDE

Variants of: B1
Experiment: enrichment ratio after two sorts for PhoP signalling (ratio (wild type AVST 3.29)); higher = more functional
Settings: with PhoP (E. coli)

Variant	enrichment ratio
SQQL	2.28
TARC	≤ 0.25
VGLQ	3.99
RNGP	≤ 0.25
VRGH	≤ 0.25
FMEF	≤ 0.25
DCKS	≤ 0.25
WELE	≤ 0.25
KCSK	≤ 0.25
SKYF	≤ 0.25
MSQI	≤ 0.25
LLAN	≤ 0.25
MDPW	≤ 0.25
HWKY	≤ 0.25
LAVI	≤ 0.25
AKGP	≤ 0.25
VDND	≤ 0.25
DHGH	≤ 0.25
KGTE	≤ 0.25
DFQV	≤ 0.25
YQPH	≤ 0.25
TKAH	10.5
NFNL	≤ 0.25
MPCI	≤ 0.25
RDMK	≤ 0.25
ICYY	≤ 0.25

Variant	enrichment ratio
TPGK	≤ 0.25
RLVV	≤ 0.25
ACHP	≤ 0.25
HFHM	≤ 0.25
PEEH	≤ 0.25
ILPR	≤ 0.25
QEGT	24.3
QDGS	≤ 0.25
PRKR	≤ 0.25
FCTQ	≤ 0.25
GTMN	≤ 0.25
NSCM	≤ 0.25
ELIL	≤ 0.25
FHQD	≤ 0.25
AGMK	9.73
HWEY	≤ 0.25
TRSN	≤ 0.25
HLIP	≤ 0.25
QIAC	≤ 0.25
AQSD	≤ 0.25
WGNG	≤ 0.25
IEVF	≤ 0.25
SECR	10.9
KMKR	≤ 0.25
QQPD	≤ 0.25
VFNL	≤ 0.25

Variant	enrichment ratio
YQDM	≤ 0.25
NCVT	≤ 0.25
TSEV	8.15
HNAH	2.97
YDSD	≤ 0.25
IKKH	≤ 0.25
LVLC	≤ 0.25
YTYA	≤ 0.25
VMEH	≤ 0.25
FKNW	≤ 0.25
TKEC	≤ 0.25
HPGS	≤ 0.25
LEPE	≤ 0.25
NAFI	≤ 0.25
LFDM	≤ 0.25
LHSP	≤ 0.25
WFFP	≤ 0.25
LASM	≤ 0.25
QQKR	≤ 0.25
LIFW	≤ 0.25
KTQA	≤ 0.25
EIPC	≤ 0.25
DLRG	≤ 0.25
AFKQ	≤ 0.25
FVFF	≤ 0.25
RQGF	≤ 0.25

Variant	enrichment ratio
KTRG	≤ 0.25
HWFL	≤ 0.25
YRKS	≤ 0.25
AYGV	≤ 0.25
TGYP	≤ 0.25
ILSL	≤ 0.25
FFMI	≤ 0.25
WGRH	≤ 0.25
VGVY	≤ 0.25
LIIQ	≤ 0.25
MAWL	12
DGAY	≤ 0.25
WWIN	≤ 0.25
DYQW	≤ 0.25
GTMT	≤ 0.25
PIHM	≤ 0.25
KQTD	≤ 0.25
PNIN	≤ 0.25
VFAQ	≤ 0.25
VCEW	≤ 0.25
WYRC	≤ 0.25
QCAR	≤ 0.25
HYKK	≤ 0.25
GIRA	≤ 0.25
HNKS	≤ 0.25
SIRH	0.562

Variant	enrichment ratio
DTAE	≤ 0.25
WYNF	≤ 0.25
YTKY	≤ 0.25
MSCG	≤ 0.25
VFKY	≤ 0.25
EGVF	≤ 0.25
WWHP	≤ 0.25
KDNI	≤ 0.25
HAGG	≤ 0.25
DSGN	≤ 0.25
LEAN	1.88
NLLL	≤ 0.25
YPLE	≤ 0.25
CAFI	≤ 0.25
EDNI	≤ 0.25
EQSN	≤ 0.25
PFPY	≤ 0.25
GINN	≤ 0.25
ILKS	≤ 0.25
WDDC	≤ 0.25
DNYT	≤ 0.25
PQDL	≤ 0.25
DQTR	≤ 0.25
WAWM	≤ 0.25
NECP	≤ 0.25
FGTI	0.765

Variant	enrichment ratio
ETLD	≤ 0.25
ARSD	≤ 0.25
SAPK	≤ 0.25
HMSL	≤ 0.25
SIMM	1.49
WKRW	≤ 0.25
PYWH	≤ 0.25
KIHT	≤ 0.25
LSAL	≤ 0.25
VAIM	≤ 0.25
SFCH	0.703
YMLK	≤ 0.25
HWQW	≤ 0.25
AIEI	≤ 0.25
EYTD	≤ 0.25
NCLS	≤ 0.25
IPIN	≤ 0.25
SQPI	≤ 0.25
MIQW	≤ 0.25
RIWQ	≤ 0.25
DYLY	≤ 0.25
VSHL	≤ 0.25
HKYN	≤ 0.25
